Measurements reported in PubChem BioAssay AID938 (National Center for Advancing Translational Sciences (NCATS), 2007).
Among all 73,000 compounds or so, about 1,800 (2.5%) were called active. This list was built around the results that the source calls inconclusive (neither active nor inactive); the mix of calls is not that of the screen. The call rests on the fitted dose curve; in most records, active means well fitted activation curve with a large enough effect; inconclusive means small, poorly fitted or top-dose-only effect; inactive means no such curve, though single readings can be large or run the other way. No potency is given beside an inconclusive call; the fits are too rough.

Experiment: qHTS Assay for Agonists of the Thyroid Stimulating Hormone Receptor: Activators of Intracellular cAMP Concentrations in Parental HEK 293; further: nearly all actives have a fitted effect of over 55% in size; on activation: % of control where 0% means no effect
Conditions: parental HEK293 CNG cAMP sensor, membrane potential fluorescence; activation: at 57.1 µM (top of the series) unless noted
How it was run: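 Counterscreen for endogenous-receptor signalling: CNG-channel HEK 293 cells report cAMP rise by membrane depolarization. After 60 min dye equilibration with 100 uM RO 20-1724, compounds incubated 30 min before bottom-read fluorescence at 590 nm.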
Potency means the concentration at half of the fitted maximal effect; tags describe the fitted curve by direction and shape.

Structure (SMILES)	activation	Potency
O=C(Nc1ccc(NC(=O)c2ccco2)nc1)c1ccccn1	inactive: -7.62%	
CN1CC(=O)N/C1=N\C(=O)Nc1ccc2c(c1)N(C)C(=O)CS2	inactive: -9.52%	
O=C(c1cccnc1)N(Cc1ccccc1)c1ccccc1		inconclusive [activator, single point]
Cc1occc1-c1nnc(SCC(=O)Nc2ccccc2)n1Cc1ccccc1		inconclusive [activator, partial curve]
Cc1cccc(CNc2nc(-c3ccoc3)nc3ccccc23)c1		inconclusive [activator, single point]
N#Cc1nc(-c2ccco2)oc1N1CCN(c2cccc(Cl)c2)CC1		active: 20 µM
COC(=O)[C@@]1(Cc2ccc(F)cc2)[C@H]2c3cc(C(=O)N4CCCC4)n(CCc4ccccn4)c3C[C@H]2CN1C(=O)c1ccccc1		inconclusive [activator, partial curve]
CCc1cccc(NC(=O)c2ccc(NS(=O)(=O)c3c(C)noc3C)cc2)c1	inactive: -14.1%	
Clc1ccccc1C(c1nnnn1Cc1ccco1)N1CCN(Cc2ccco2)CC1 (centres undefined)		inconclusive [activator, partial curve]
COCCn1c(=O)c(-c2ccc(OC)cc2)nc2cnc(Nc3cccc(OC)c3)nc21	inactive: 12%	
[O-][n+]1onc2c1CCc1c-2nc(-c2ccccc2)n1OCc1ccccc1		active: 12.6 µM
c1ccc(-c2noc(-c3cccnc3)n2)nc1		inconclusive [activator, single point]
COCCOC(=O)c1c(C)oc2ccc(OC(=O)c3cccs3)cc12		inconclusive [activator, single point]
Cc1cc2ccccc2nc1SCC(=O)N1CCCC1		inconclusive [activator, partial curve]
Cc1cccc(OCc2n[nH]c(=S)o2)c1		inconclusive [activator, single point]
CN1CCCC2(CCN(C(=O)c3cccn3C)CC2)C1		inconclusive [activator, single point]
O=P(c1ccccc1)(c1ccccc1)C(c1ccco1)N1CCOCC1 (centres undefined)		inconclusive [activator, partial curve]
O=S(=O)(c1ccccc1)c1ccc(NCc2ccco2)cc1		inconclusive [activator, partial curve]
COC(=O)[C@@]1(Cc2ccccc2)[C@H]2c3cc(C(=O)N(C)C)n(CCSCCO)c3C[C@H]2CN1C(=O)c1ccccc1		inconclusive [activator, single point]
